The target of assay [1] is T1, GST-tagged γ2 subunit 398-415 (mouse).
T1 sequence: ERDEEYGYECLDGKDCAS
The assay is described as follows: pull-down; competitive GST pull-down; 2 µM GST-γ2 398-415 incubated with purified AP2 and rising amounts of GABARAP, 1 h at 4 °C; GSH-Sepharose 4B; 50 mM Tris pH 7.5, 100 mM NaCl, 1 mM EDTA, 1 mM DTT; Coomassie blue; both purified.

By UniProt entry, the sequences of proteins in these tests, tags left out. Where a name states a change or a piece, a line headed by the entry shows the natural chain unless it says otherwise. Chains listed by the source or under a name are the forms on record and can include a tag or linker. Residues count along the entry.
UniProt Q9DCD6: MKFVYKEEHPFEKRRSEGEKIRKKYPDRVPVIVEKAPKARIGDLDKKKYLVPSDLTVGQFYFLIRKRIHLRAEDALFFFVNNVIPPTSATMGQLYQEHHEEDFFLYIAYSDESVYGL
UniProt P60521: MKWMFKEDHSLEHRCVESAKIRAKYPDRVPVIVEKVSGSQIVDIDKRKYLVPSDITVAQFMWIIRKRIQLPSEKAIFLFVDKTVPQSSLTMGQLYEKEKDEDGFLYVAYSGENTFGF
UniProt P84092, residues 158-435: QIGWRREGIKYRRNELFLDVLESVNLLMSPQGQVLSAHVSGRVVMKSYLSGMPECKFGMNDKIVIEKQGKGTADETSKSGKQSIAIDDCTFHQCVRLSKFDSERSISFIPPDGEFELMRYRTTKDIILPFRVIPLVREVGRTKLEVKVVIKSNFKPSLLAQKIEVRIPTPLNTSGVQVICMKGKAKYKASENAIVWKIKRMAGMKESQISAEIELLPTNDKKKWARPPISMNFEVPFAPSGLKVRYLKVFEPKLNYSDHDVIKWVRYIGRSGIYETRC
GFP-γ2-GABAAR full length (P22723-2, form named): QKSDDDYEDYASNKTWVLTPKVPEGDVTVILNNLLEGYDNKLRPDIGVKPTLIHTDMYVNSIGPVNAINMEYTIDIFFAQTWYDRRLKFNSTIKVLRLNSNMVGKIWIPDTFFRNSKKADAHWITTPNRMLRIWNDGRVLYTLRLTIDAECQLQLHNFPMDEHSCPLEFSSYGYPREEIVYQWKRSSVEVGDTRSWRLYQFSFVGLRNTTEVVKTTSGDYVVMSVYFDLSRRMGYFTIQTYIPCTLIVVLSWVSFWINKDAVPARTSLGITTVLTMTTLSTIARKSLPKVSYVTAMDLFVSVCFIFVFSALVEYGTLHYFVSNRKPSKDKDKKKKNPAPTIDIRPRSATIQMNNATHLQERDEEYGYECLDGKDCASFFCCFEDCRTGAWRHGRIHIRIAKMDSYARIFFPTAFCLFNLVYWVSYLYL

The target of assay [2] is GST-LC3A (mouse) (UniProt Q91VR7). The assay is described as follows: pull-down; 2 µM purified GST-Atg8 protein incubated with HEK-293 lysate of GFP-tagged γ2 subunit (1% NP-40, 1% DDM), 4 °C; GSH-Sepharose 4B; immunoblot; only the target purified.
Assay [3] deals with GST-GABARAP (mouse) (UniProt Q9DCD6). The description is as above.
In assay [4] the target is GST-GABARAP L50A variant (mouse) (UniProt Q9DCD6). The description is as above.
The target in assay [5] is GST-GABARAP (mouse) (UniProt Q9DCD6). The assay is described as follows: pull-down; GST pull-down of GABARAP/γ2-GABAAR with AnkB-WT peptide as competitor (Supplementary Fig. 7a).
For assay [6], the target named is GABARAP R67E (mouse) (UniProt Q9DCD6). The assay is described as follows: condition: 100–200 μM in the syringe, 10–20 μM in the cell; ITC; VP-ITC, 25 °C; 50 mM Tris pH 7.8, 100 mM NaCl, 1 mM EDTA, 1 mM DTT; γ2 subunit protein or peptide (100–200 μM) injected into GABARAP, GABARAPL1 or AP2 (10–20 μM) in the cell; one-site binding model; both purified.
Assay [7] concerns the target GABARAP L50A (mouse) (UniProt Q9DCD6). Described as above.
Assay [8] addresses GABARAP Y49A (mouse) (UniProt Q9DCD6). Described as above.
Assay [9] concerns the target GABARAPL2 (mouse) (UniProt P60521). The description is as above.
Assay [10] has as its target LC3A (mouse) (UniProt Q91VR7). The assay is described as above.
In assay [11] the target is GABARAPL2 (mouse) (UniProt P60521). The assay is described as follows: SEC; analytical gel filtration; N-terminal His6-tagged recombinant proteins at 100 µM; Superose12 or Superdex200 increase 10/300 GL; 50 mM Tris pH 7.5, 100 mM NaCl, 1 mM EDTA, 1 mM DTT; both purified. On the technique in general: In gel filtration, larger molecules generally elute earlier.
Assay [12] addresses LC3A (mouse) (UniProt Q91VR7). The description is as above.
The target of assay [13] is GST-GABARAP (mouse) (UniProt Q9DCD6). The assay is described as follows: pull-down; 2 µM GST-GABARAP with lysate of HEK-293 cells overexpressing GFP-γ2 FL (1% NP-40, 1% DDM), with or without AnkB WT peptide; GSH-Sepharose 4B; immunoblot for GFP; only the target purified. In general terms: Immunoblotting shows a protein as a band on a membrane.

Results are given in words; binding and its absence hold for the method and conditions named. For some of these results: Binding seen in cells or lysates may run through a third protein. Some entries that bind do so weakly or less than the wild type. For some of these results: Sequences can lack the tags named with a protein.

As to “MBP-AP2 (from UniProt P84092 158-435) (domain or fragment)”, the binding result in assay [1] is recorded as “binds”.

“full length (FL) GFP-γ2-GABAAR wild-type (WT) (from UniProt P22723-2 39-466) (receptor)”: the binding result in assay [2] is “no binding (tested: 2 µM GST protein)”; in assay [3], “binds”; in assay [4], “no binding (tested: 2 µM GST protein)”; in assay [5], “binds”.

Turning to “GABAAR γ2 subunit GIM (GABARAP interacting motif, 398–415) (from UniProt P22723-2 398-415) (peptide)”, the binding result in assay [6] is recorded as “no binding”; in assay [7] it was “no binding”; in assay [8], “no binding”; in assay [9], “no binding”; in [10], “no binding”; in assay [11], “no binding (tested: 100 µM)”. Further, the binding entry in [12] is listed as “no binding (tested: 100 µM)”.

Turning to “GFP-γ2-GABAAR full length (from UniProt P22723-2 39-466) (receptor)”, the binding entry in [13] is listed as “binds”.
